Source: paper PMC4242493
The list shows a part of the results. The list includes weakly bound sequences.

What follows are sequences tested against MaxL homodimer (UniProt P61244) (assay: universal protein-binding microarray (PBM)). Details: PBS-based mixture, 10 nM His-tagged protein dimer, 2% milk, 200 ng/uL BSA, 50 ng/uL salmon testes DNA, 0.02% TX-100; detection with Alexa 488 anti-His …; high values mean tight binding; most listed sequences are background and not binding sites; double strand, one strand shown.
UniProt P61244, sequence (P61244 whole entry): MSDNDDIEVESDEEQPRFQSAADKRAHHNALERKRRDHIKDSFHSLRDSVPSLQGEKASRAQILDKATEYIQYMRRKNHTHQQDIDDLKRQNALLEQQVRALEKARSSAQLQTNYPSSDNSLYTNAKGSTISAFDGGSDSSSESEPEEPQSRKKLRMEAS
For AACCGCGA, the binding signal (normalized occupancy) was 0.0724. AACATGAC was tested, and the binding signal (normalized occupancy) was 0.0831. With AGTATCGC the binding signal (normalized occupancy) was 0.0728. Work on CTCTCCAA yielded a binding signal (normalized occupancy) of 0.0761. GATCGAAA was tested, and the binding signal (normalized occupancy) was 0.0715. CCCGCACA was tested, and the binding signal (normalized occupancy) was 0.085. With GCCATCCA the binding signal (normalized occupancy) was 0.0781. Work on CCGAGGTC yielded a binding signal (normalized occupancy) of 0.0666. Sequence CTGCCTTA has a binding signal (normalized occupancy) of 0.0723. In the case of CCTGTACC, the binding signal (normalized occupancy) was 0.0769. For ACGCCCCG, the binding signal (normalized occupancy) was 0.076. Work on CGCCCCAG yielded a binding signal (normalized occupancy) of 0.0687. In the case of ACGCTCAT, the binding signal (normalized occupancy) was 0.0832. CCCTCAAA showed a binding signal (normalized occupancy) of 0.0701. Work on CTCGAAGA yielded a binding signal (normalized occupancy) of 0.0656. With GCTTCGAC the binding signal (normalized occupancy) was 0.067. With GCTGGTCA the binding signal (normalized occupancy) was 0.0754. In the case of CCATTCTC, the binding signal (normalized occupancy) was 0.0771. With CGATGATC the binding signal (normalized occupancy) was 0.0726. AAAATCTC showed a binding signal (normalized occupancy) of 0.0762. CACGCCCA gave a binding signal (normalized occupancy) of 0.0892. CTCATACC was tested, and the binding signal (normalized occupancy) was 0.0778. AGTAGCAG showed a binding signal (normalized occupancy) of 0.0738. AACAAGAC was tested, and the binding signal (normalized occupancy) was 0.0749. GATCAAAA gave a binding signal (normalized occupancy) of 0.0755. With AGCGGGGC the binding signal (normalized occupancy) was 0.068. GAGCTCTA showed a binding signal (normalized occupancy) of 0.069. With CAATAGAA the binding signal (normalized occupancy) was 0.0756. GCTTGTTA showed a binding signal (normalized occupancy) of 0.0749. Work on ACTTCTAT yielded a binding signal (normalized occupancy) of 0.0767. In the case of AGCCTTAC, the binding signal (normalized occupancy) was 0.0711. For CGTGGTAA, the binding signal (normalized occupancy) was 0.096. AACCCCAT gave a binding signal (normalized occupancy) of 0.0804. ACGCGGGC was tested, and the binding signal (normalized occupancy) was 0.0759. Sequence ATATCATA has a binding signal (normalized occupancy) of 0.0893. GGCCAGAC showed a binding signal (normalized occupancy) of 0.0701. With ACACGTGT the binding signal (normalized occupancy) was 0.545. CTCGTTTA was tested, and the binding signal (normalized occupancy) was 0.0741. With ATATATCA the binding signal (normalized occupancy) was 0.0877. CGTTGCAA gave a binding signal (normalized occupancy) of 0.0707. For ACCCGTTC, the binding signal (normalized occupancy) was 0.0827. CAGGAGCA gave a binding signal (normalized occupancy) of 0.0687. With GGCACACC the binding signal (normalized occupancy) was 0.0779. With AAATGGCG the binding signal (normalized occupancy) was 0.0746. For GCTCAGAC, the binding signal (normalized occupancy) was 0.0703. Work on GGTAGACC yielded a binding signal (normalized occupancy) of 0.0727. Sequence TAAGTTCA has a binding signal (normalized occupancy) of 0.0774. CAAGGCGC showed a binding signal (normalized occupancy) of 0.0709. GGCTGGTA was tested, and the binding signal (normalized occupancy) was 0.073. GGGTAACC showed a binding signal (normalized occupancy) of 0.0704. In the case of GGTCAAGA, the binding signal (normalized occupancy) was 0.0783. For CACCCCAC, the binding signal (normalized occupancy) was 0.0934. Work on CAATCCGC yielded a binding signal (normalized occupancy) of 0.0713. With ATCCTGAG the binding signal (normalized occupancy) was 0.0762. For AACGGTGA, the binding signal (normalized occupancy) was 0.0739. GTCCGCAA gave a binding signal (normalized occupancy) of 0.0768. AACGGGGG gave a binding signal (normalized occupancy) of 0.0767. AAAAACGT showed a binding signal (normalized occupancy) of 0.0736. ATTAGAAG showed a binding signal (normalized occupancy) of 0.0762. ATTGACCG was tested, and the binding signal (normalized occupancy) was 0.0761. TGCCTCCA was tested, and the binding signal (normalized occupancy) was 0.08. AATCCGAT was tested, and the binding signal (normalized occupancy) was 0.0764. With CCTTGCCC the binding signal (normalized occupancy) was 0.0729. Work on ACGGGTCC yielded a binding signal (normalized occupancy) of 0.0672. CAATCTAC showed a binding signal (normalized occupancy) of 0.0764. AGGGATTC was tested, and the binding signal (normalized occupancy) was 0.0746. With ACTAGTTC the binding signal (normalized occupancy) was 0.0709. TCCAATAA gave a binding signal (normalized occupancy) of 0.073. With AGTAACTG the binding signal (normalized occupancy) was 0.0746. In the case of CTATATGA, the binding signal (normalized occupancy) was 0.0846. AGCGGTCA showed a binding signal (normalized occupancy) of 0.0736. For GTCACCTA, the binding signal (normalized occupancy) was 0.0725. In the case of CAGACGCC, the binding signal (normalized occupancy) was 0.0712. For ATCCTGCA, the binding signal (normalized occupancy) was 0.0768. Sequence CCCTCCGG has a binding signal (normalized occupancy) of 0.0678. In the case of CACCGCCC, the binding signal (normalized occupancy) was 0.0721. CTAGATGA was tested, and the binding signal (normalized occupancy) was 0.0788. For CCTCTTCA, the binding signal (normalized occupancy) was 0.0765. GCTCATCC showed a binding signal (normalized occupancy) of 0.0753. For GATCTCAA, the binding signal (normalized occupancy) was 0.0701. With AAACGTTT the binding signal (normalized occupancy) was 0.0755. For ATTCTAAG, the binding signal (normalized occupancy) was 0.0803. For AATCGTTC, the binding signal (normalized occupancy) was 0.0763. For AACTTCAG, the binding signal (normalized occupancy) was 0.0716. AACAATAG gave a binding signal (normalized occupancy) of 0.076. For AACTCATT, the binding signal (normalized occupancy) was 0.0748. CATTCCTC was tested, and the binding signal (normalized occupancy) was 0.0759. ACGGTGCC gave a binding signal (normalized occupancy) of 0.0705. Sequence CCTCCGCG has a binding signal (normalized occupancy) of 0.0696. Work on AGTACTAA yielded a binding signal (normalized occupancy) of 0.0769. Sequence CCAAGGCC has a binding signal (normalized occupancy) of 0.0671. AGAGATTC was tested, and the binding signal (normalized occupancy) was 0.0757. AATGTCAG gave a binding signal (normalized occupancy) of 0.0792. With TTAGGAAA the binding signal (normalized occupancy) was 0.0734. ATGGCCAC was tested, and the binding signal (normalized occupancy) was 0.0858. CTAGTATA was tested, and the binding signal (normalized occupancy) was 0.0786. AACTGAGG showed a binding signal (normalized occupancy) of 0.0669. CAAGACCG showed a binding signal (normalized occupancy) of 0.0717. Work on ATAAGCAG yielded a binding signal (normalized occupancy) of 0.0802. In the case of TCGTAAGA, the binding signal (normalized occupancy) was 0.0723. GCGAGCGA gave a binding signal (normalized occupancy) of 0.068. Work on CAACTGGA yielded a binding signal (normalized occupancy) of 0.0733. AACGTCGG showed a binding signal (normalized occupancy) of 0.0712. Work on CGACCGCG yielded a binding signal (normalized occupancy) of 0.0723. In the case of GAACAGAC, the binding signal (normalized occupancy) was 0.0719. Work on ACAAAACA yielded a binding signal (normalized occupancy) of 0.0757. With ATGTCAGA the binding signal (normalized occupancy) was 0.0793. In the case of AACAGTTG, the binding signal (normalized occupancy) was 0.0724. In the case of AAACTCCA, the binding signal (normalized occupancy) was 0.07. In the case of TAGCAAAA, the binding signal (normalized occupancy) was 0.0703.
